Laboratory results taken from the supplement of paper PMC8728848.
The other results are listed elsewhere or left out.

Assays:
Test in all cases: glycan array binding signal (z-score within array); higher = stronger binding
Conditions in all cases: glycan notation: IUPAC condensed, linker removed
[1] = biological target: Man(a1-2)Man(a1-3)[Man(a1-3)[Man(a1-6)]Man(a1-6)]Man(b1-4)GlcNAc(b1-4)GlcNAc
Method in brief: (§1)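 Glycan array data were curated from 3228 arrays in the Consortium for Functional Glycomics database and kept only where the protein sequence was available. Glycan names were converted to IUPAC-condensed notation, and columns mapping to the same glycan were averaged. The binding signal is a within-array Z-score, averaged across arrays of the same protein sequence at different concentrations or buffers and across linkers. Negative Z-scores can be read as non-binding.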

[2] = biological target: Man(a1-2)Man(a1-3)[Man(a1-6)]Man(a1-6)[Man(a1-2)Man(a1-3)]Man(b1-4)GlcNAc(b1-4)GlcNAc
Method in brief: as §1

[3] = biological target: Man(a1-2)Man(a1-6)[Man(a1-3)]Man(a1-6)[Man(a1-2)Man(a1-2)Man(a1-3)]Man
Method in brief: as §1

[4] = biological target: Man(a1-2)Man(a1-6)[Man(a1-3)]Man(a1-6)[Man(a1-2)Man(a1-2)Man(a1-3)]Man(b1-4)GlcNAc(b1-4)GlcNAc
Method in brief: as §1

Man(a1-3)[Man(a1-6)]Man = biological target: Man(a1-3)[Man(a1-6)]Man
Method in brief: as §1

[5] = biological target: Man(a1-3)[Man(a1-6)]Man(a1-6)[Man(a1-2)Man(a1-3)]Man(b1-4)GlcNAc(b1-4)GlcNAc
Method in brief: as §1

[6] = biological target: Man(a1-3)[Man(a1-6)]Man(a1-6)[Man(a1-3)]Man
Method in brief: as §1

[7] = biological target: Man(a1-3)[Man(a1-6)]Man(a1-6)[Man(a1-3)]Man(b1-4)GlcNAc(b1-4)GlcNAc
Method in brief: as §1

[8] = biological target: Man(a1-3)[Man(a1-6)]Man(b1-4)GlcNAc(b1-4)GlcNAc
Method in brief: as §1

[9] = biological target: Man(a1-3)[Man(a1-6)]Man(b1-4)GlcNAc(b1-4)[Fuc(a1-6)]GlcNAc
Method in brief: as §1

Man(a1-6)Man = biological target: Man(a1-6)Man
Method in brief: as §1

Man(b1-4)GlcNAc = biological target: Man(b1-4)GlcNAc
Method in brief: as §1

MurNAc(b1-4)GlcNAc = biological target: MurNAc(b1-4)GlcNAc
Method in brief: as §1

Neu5Ac(a2-3)Gal = biological target: Neu5Ac(a2-3)Gal
Method in brief: as §1

[10] = biological target: Neu5Ac(a2-3)Gal(b1-3)GalNAc
Method in brief: as §1

[11] = biological target: Neu5Ac(a2-3)Gal(b1-3)GalNAc(b1-3)Gal(a1-4)Gal(b1-4)Glc
Method in brief: as §1

[12] = biological target: Neu5Ac(a2-3)Gal(b1-3)GalNAc(b1-4)[Neu5Ac(a2-3)]Gal(b1-4)Glc
Method in brief: as §1

[13] = biological target: Neu5Ac(a2-3)Gal(b1-3)GalNAc(b1-4)[Neu5Ac(a2-8)Neu5Ac(a2-3)]Gal(b1-4)Glc
Method in brief: as §1

[14] = biological target: Neu5Ac(a2-3)Gal(b1-3)GalNAc6S
Method in brief: as §1

[15] = biological target: Neu5Ac(a2-3)Gal(b1-3)GlcNAc
Method in brief: as §1

[16] = biological target: Neu5Ac(a2-3)Gal(b1-3)GlcNAc(b1-2)Man
Method in brief: as §1

[17] = biological target: Neu5Ac(a2-3)Gal(b1-3)GlcNAc(b1-2)Man(a1-3)[GlcNAc(b1-4)][Neu5Ac(a2-3)Gal(b1-3)GlcNAc(b1-2)Man(a1-6)]Man(b1-4)GlcNAc(b1-4)GlcNAc
Method in brief: as §1

[18] = biological target: Neu5Ac(a2-3)Gal(b1-3)GlcNAc(b1-2)Man(a1-3)[Neu5Ac(a2-3)Gal(b1-3)GlcNAc(b1-2)Man(a1-6)]Man(b1-4)GlcNAc(b1-4)GlcNAc
Method in brief: as §1

[19] = biological target: Neu5Ac(a2-3)Gal(b1-3)GlcNAc(b1-2)[Neu5Ac(a2-3)Gal(b1-3)GlcNAc(b1-4)]Man(a1-6)[Neu5Ac(a2-3)Gal(b1-3)GlcNAc(b1-2)Man(a1-3)]Man(b1-4)GlcNAc(b1-4)GlcNAc
Method in brief: as §1

[20] = biological target: Neu5Ac(a2-3)Gal(b1-3)GlcNAc(b1-3)Gal(b1-3)GlcNAc
Method in brief: as §1

[21] = biological target: Neu5Ac(a2-3)Gal(b1-3)GlcNAc(b1-3)Gal(b1-4)GlcNAc
Method in brief: as §1

[22] = biological target: Neu5Ac(a2-3)Gal(b1-3)GlcNAc(b1-3)GalNAc
Method in brief: as §1

[23] = biological target: Neu5Ac(a2-3)Gal(b1-3)GlcNAc(b1-4)Gal(b1-4)Glc
Method in brief: as §1

[24] = biological target: Neu5Ac(a2-3)Gal(b1-3)GlcNAc(b1-6)GalNAc
Method in brief: as §1

[25] = biological target: Neu5Ac(a2-3)Gal(b1-3)GlcNAc6S
Method in brief: as §1

[26] = biological target: Neu5Ac(a2-3)Gal(b1-3)[Fuc(a1-4)]GlcNAc
Method in brief: as §1

[27] = biological target: Neu5Ac(a2-3)Gal(b1-3)[Fuc(a1-4)]GlcNAc(b1-3)Gal(b1-3)[Fuc(a1-4)]GlcNAc
Method in brief: as §1

[28] = biological target: Neu5Ac(a2-3)Gal(b1-3)[Fuc(a1-4)]GlcNAc(b1-3)Gal(b1-4)[Fuc(a1-3)]GlcNAc
Method in brief: as §1

[29] = biological target: Neu5Ac(a2-3)Gal(b1-3)[GlcNAc(b1-6)]GalNAc
Method in brief: as §1

[30] = biological target: Neu5Ac(a2-3)Gal(b1-3)[Neu5Ac(a2-3)Gal(b1-4)]GlcNAc
Method in brief: as §1

[31] = biological target: Neu5Ac(a2-3)Gal(b1-3)[Neu5Ac(a2-6)]GalNAc
Method in brief: as §1

[32] = biological target: Neu5Ac(a2-3)Gal(b1-3)[Neu5Ac(a2-6)]GlcNAc(b1-3)[Fuc(a1-3)[Gal(b1-4)]GlcNAc(b1-6)]Gal(b1-4)Glc
Method in brief: as §1

B1: Epa12 (Candida glabrata) (protein)
chain: MGSSHHHHHHSSGLVPRGSHMLEPDNSLQIFDSFLSNPSKYPLGCSPKITNPKKGLSMELYSYPYRKKGSHPCWDPAYLDPNFPRVGYKKNKLIARVDGVSGDINFNFHPKRQCTPIADYLPPNFNYNEPITTTNFTMLLYGYFKPKVTGLHTFDISADDLLFMNFGAGNAFDCCRRDSTADTFGNYVAWAIWGRRIVRNKLTVRLDKGIYYPLRLFFNNRDYYGQMRLTFKTEHGSERITDFSDYFFSVDDTSEGCPGLITYESECADVKSSTVLETDYITIQAEKE
Which results are given for B1?
glycan array binding signal (z-score) [1]: -0.282; glycan array binding signal (z-score) [2]: -0.345; glycan array binding signal (z-score) [3]: -0.548; glycan array binding signal (z-score) [4]: -0.265; glycan array binding signal (z-score) (Man(a1-3)[Man(a1-6)]Man): -0.26; glycan array binding signal (z-score) [5]: -0.182; glycan array binding signal (z-score) [6]: -0.309; glycan array binding signal (z-score) [7]: -0.222; glycan array binding signal (z-score) [8]: -0.31; glycan array binding signal (z-score) [9]: -0.335; glycan array binding signal (z-score) (Man(a1-6)Man): -0.189; glycan array binding signal (z-score) (Man(b1-4)GlcNAc): -0.301; glycan array binding signal (z-score) (MurNAc(b1-4)GlcNAc): -0.373; glycan array binding signal (z-score) (Neu5Ac(a2-3)Gal): -0.341; glycan array binding signal (z-score) [10]: -0.136; glycan array binding signal (z-score) [11]: -0.269; glycan array binding signal (z-score) [12]: -0.309; glycan array binding signal (z-score) [13]: -0.41; glycan array binding signal (z-score) [14]: 0.197; glycan array binding signal (z-score) [15]: -0.303; glycan array binding signal (z-score) [16]: -0.336; glycan array binding signal (z-score) [17]: -0.138; glycan array binding signal (z-score) [18]: -0.234; glycan array binding signal (z-score) [19]: -0.349; glycan array binding signal (z-score) [20]: -0.43; glycan array binding signal (z-score) [21]: -0.332; glycan array binding signal (z-score) [22]: -0.23; glycan array binding signal (z-score) [23]: -0.295; glycan array binding signal (z-score) [24]: -0.311; glycan array binding signal (z-score) [25]: -0.283; glycan array binding signal (z-score) [26]: -0.368; glycan array binding signal (z-score) [27]: -0.342; glycan array binding signal (z-score) [28]: -0.294; glycan array binding signal (z-score) [29]: -0.356; glycan array binding signal (z-score) [30]: -0.255; glycan array binding signal (z-score) [31]: -0.335; glycan array binding signal (z-score) [32]: -0.203
